Experimental data published in US20230303649A1 (published 2023).

Key:
Test in all cases: cell-based or functional assay
[1] = biological target: cynomolgus IL-2R (on cynomolgus monkey Tregs) (cynomolgus monkey)
[2] = biological target: T1, IL-2R on human primary T cells (human, UniProt P01589 22-272; P14784 27-551; P31785 23-369)
T1 sequence (looked up) 1: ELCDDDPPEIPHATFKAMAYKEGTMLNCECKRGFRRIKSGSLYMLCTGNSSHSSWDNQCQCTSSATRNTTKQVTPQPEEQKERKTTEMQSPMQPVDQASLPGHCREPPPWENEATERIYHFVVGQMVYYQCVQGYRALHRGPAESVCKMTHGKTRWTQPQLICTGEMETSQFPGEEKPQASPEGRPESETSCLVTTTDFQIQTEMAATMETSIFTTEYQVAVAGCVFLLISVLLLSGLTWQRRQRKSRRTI
T1 sequence (looked up) 2: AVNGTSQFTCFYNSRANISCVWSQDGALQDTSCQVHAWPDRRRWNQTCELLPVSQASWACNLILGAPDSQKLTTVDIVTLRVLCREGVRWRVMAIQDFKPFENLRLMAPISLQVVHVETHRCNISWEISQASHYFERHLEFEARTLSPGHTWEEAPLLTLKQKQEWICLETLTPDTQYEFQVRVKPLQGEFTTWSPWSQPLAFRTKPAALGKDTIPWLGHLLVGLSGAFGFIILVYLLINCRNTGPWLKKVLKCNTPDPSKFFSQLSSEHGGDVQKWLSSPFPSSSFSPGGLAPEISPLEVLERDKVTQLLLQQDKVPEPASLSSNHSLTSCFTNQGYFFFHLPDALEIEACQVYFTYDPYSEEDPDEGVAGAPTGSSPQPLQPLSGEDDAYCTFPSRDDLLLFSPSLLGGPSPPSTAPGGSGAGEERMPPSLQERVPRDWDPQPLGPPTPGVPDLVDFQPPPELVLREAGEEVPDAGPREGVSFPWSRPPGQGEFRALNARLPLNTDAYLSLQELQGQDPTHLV
T1 sequence (looked up) 3: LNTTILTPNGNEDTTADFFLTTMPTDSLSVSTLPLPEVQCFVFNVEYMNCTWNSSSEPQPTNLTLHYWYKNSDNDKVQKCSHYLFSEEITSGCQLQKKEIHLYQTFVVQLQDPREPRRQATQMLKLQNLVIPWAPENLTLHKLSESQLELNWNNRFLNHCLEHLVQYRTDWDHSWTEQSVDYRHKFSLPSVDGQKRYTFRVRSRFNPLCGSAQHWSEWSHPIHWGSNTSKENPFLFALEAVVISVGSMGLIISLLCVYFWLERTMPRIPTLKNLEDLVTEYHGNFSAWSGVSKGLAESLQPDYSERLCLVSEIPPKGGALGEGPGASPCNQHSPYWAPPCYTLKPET

[3] = biological target: T2, mouse IL-2R (on mouse Tregs) (mouse, UniProt P01590 22-268; P16297 27-539; P34902 23-369)
T2 sequence (looked up) 1: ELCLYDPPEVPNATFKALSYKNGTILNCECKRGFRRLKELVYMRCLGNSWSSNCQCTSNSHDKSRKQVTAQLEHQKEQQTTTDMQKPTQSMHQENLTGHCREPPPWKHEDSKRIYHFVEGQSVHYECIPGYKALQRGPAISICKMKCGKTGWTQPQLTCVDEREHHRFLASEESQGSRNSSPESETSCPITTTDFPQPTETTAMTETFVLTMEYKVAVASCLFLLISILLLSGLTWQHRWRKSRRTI
T2 sequence (looked up) 2: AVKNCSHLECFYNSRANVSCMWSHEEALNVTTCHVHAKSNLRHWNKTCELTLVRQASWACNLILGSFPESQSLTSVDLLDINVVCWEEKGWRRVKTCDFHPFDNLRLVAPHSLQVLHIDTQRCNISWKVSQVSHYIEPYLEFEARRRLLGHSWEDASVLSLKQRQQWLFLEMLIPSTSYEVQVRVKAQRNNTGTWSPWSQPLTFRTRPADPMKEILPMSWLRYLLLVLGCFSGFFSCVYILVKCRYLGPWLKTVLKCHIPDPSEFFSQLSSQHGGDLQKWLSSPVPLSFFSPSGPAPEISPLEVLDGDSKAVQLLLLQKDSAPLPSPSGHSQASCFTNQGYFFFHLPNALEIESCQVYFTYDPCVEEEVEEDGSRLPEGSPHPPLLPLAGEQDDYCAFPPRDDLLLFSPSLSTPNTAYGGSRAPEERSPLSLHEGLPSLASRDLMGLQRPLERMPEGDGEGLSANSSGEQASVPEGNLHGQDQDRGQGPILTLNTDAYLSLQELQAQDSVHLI
T2 sequence (looked up) 3: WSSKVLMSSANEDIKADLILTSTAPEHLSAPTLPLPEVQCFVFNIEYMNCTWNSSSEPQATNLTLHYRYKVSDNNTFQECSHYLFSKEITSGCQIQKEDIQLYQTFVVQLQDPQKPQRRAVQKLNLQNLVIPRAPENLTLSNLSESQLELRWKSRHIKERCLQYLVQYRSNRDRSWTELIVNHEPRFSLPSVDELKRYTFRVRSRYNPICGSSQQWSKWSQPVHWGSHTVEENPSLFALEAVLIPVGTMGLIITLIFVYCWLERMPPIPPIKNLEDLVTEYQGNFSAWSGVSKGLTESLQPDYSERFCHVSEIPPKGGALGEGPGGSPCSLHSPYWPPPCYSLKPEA

[4] = biological target: T1, IL-2R on human primary T cells; remark: listed apart in the source

B1: Aldesleukin (SEQ ID NO: 2) (ligand)
chain: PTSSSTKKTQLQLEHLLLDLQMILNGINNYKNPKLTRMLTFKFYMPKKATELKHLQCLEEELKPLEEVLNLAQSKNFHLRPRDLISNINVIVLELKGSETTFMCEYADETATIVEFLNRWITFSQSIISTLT
Treg cyno, potency of STAT5 activation [1]: 0.06 | Treg human, potency of STAT5 activation [2]: 0.025 | Treg mouse, potency of STAT5 activation [3]: 0.016 | CD8 EC50 (nM), STAT5 phosphorylation [4]: 9.07 nM | Treg EC50 (nM), STAT5 phosphorylation [4]: 0.019 nM
